The source of these data is PubChem BioAssay AID1508642 (National Center for Advancing Translational Sciences (NCATS), 2021).

Screen size: about 43,000 compounds; about 200 (0.47%) were called active. Not shown: some 12% with an inconclusive outcome. Calls come from the whole dose curve; as a rule, active = well fitted cell-killing curve with a large enough effect; inconclusive = small, poorly fitted or top-dose-only effect, or effect the other way; inactive = flat fitted curve, though single readings scatter. The list shows a part of the results.
% is set by controls: 0 for no effect and ±100 for the full control effect.

The test can be described thus: Cell viability qHTS assay in S16 Pmp22-F2sN cells. Note: nearly all actives have a fitted effect of over 65% in size. To be noted: S16 Pmp22-F2sN Schwann cells (luciferase reporters placed in the Pmp22 gene) viability, CellTiter-Glo, 24 h; series mostly up to 57.5 µM; activity change, negative = cytotoxicity: at the top concentration. In short, it runs like this: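 Rat S16 Schwann reporter line, 24 h treatment with library compounds delivered at 23 nL per well. Cell viability by CellTiter-Glo luminescence.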
As for `O=C1COc2cc(S(=O)(=O)CCC(=O)N3CCN(c4cccc(Cl)c4)CC3)c(Cl)cc2N1`, the “activity change, negative = cytotoxicity” value was inactive: -3.66%.

In the case of `CCC(C)NC(=O)c1sc2nc(C)c(C(=O)Nc3ccc(C)cc3C)c(-c3ccc(Cl)cc3)c2c1N` (stereo unspecified), the “activity change, negative = cytotoxicity” value was inactive: 3.17%.

As for `CCN(CCCNC(=O)c1cc2c(=O)n(CC)c3ccccc3c2s1)c1cccc(C)c1`, the “activity change, negative = cytotoxicity” value was inactive: 6.87%.

For `Cc1ccccc1-c1nc(CS(=O)(=O)CC(=O)NC(C)c2ccccc2)c(C)o1` (stereo unspecified), the “activity change, negative = cytotoxicity” value is inactive: -2.11%.

Take `CCc1ccc(N2CCn3c2nc2c3c(=O)n(Cc3ccc(F)cc3)c(=O)n2C)cc1`: the “activity change, negative = cytotoxicity” value was inactive: 1.27%.

On to `COc1ccc2c(c1)c(=O)c(S(=O)(=O)c1ccc(C)c(C)c1)cn2CC(=O)Nc1ccccc1`, for which the “activity change, negative = cytotoxicity” value was inactive: -5.95%.

For `Cc1ccc(-n2c3c(c(=O)[nH]c2=O)C(NC(=O)c2ccccc2F)(C(F)(F)F)C(=O)N3)cc1C` (stereo unspecified), the “activity change, negative = cytotoxicity” value is inactive: -0.19%.

For the compound `Cc1ccc(CNc2ccc(-c3nc(-c4ccco4)no3)cc2[N+](=O)[O-])cc1`, the “activity change, negative = cytotoxicity” value was inactive: 0.756%.

As to `Cc1ccc(-c2cc(C(=O)O)n(Cc3ccccc3)n2)cc1`, the “activity change, negative = cytotoxicity” value was inactive: 4.12%.

With `Cc1ccc(S(=O)(=O)c2nc(-c3ccccc3)oc2N2CCN(c3ccccc3)CC2)cc1`, the “activity change, negative = cytotoxicity” value is inactive: -3.35%.

For `COc1ccc(Cl)cc1NC(=O)CN(c1cc(C)cc(C)c1)S(=O)(=O)c1c(C)n[nH]c1C`, the “activity change, negative = cytotoxicity” value was inactive: 1.11%.

Consider `COc1cc(-c2noc(C3CC(=O)N(c4ccc5c(c4)OCCO5)C3)n2)cc(OC)c1OC` (stereo unspecified), for which the “activity change, negative = cytotoxicity” value was inactive: -6.22%.

As for `O=C(Nc1cc(F)ccc1F)C1COc2ccccc2C1` (stereo unspecified), the “activity change, negative = cytotoxicity” value is inactive: -1.78%.

As to `COc1ccc(NS(=O)(=O)c2ccc(NC(=O)N3CCCC3)cc2)cc1`, the “activity change, negative = cytotoxicity” value is inactive: -21.7%.

`CCOC(=O)c1cc(-c2ccc(C)cc2)nn1Cc1ccccc1`: the “activity change, negative = cytotoxicity” value was inactive: -8.65%.

Turning to `Cc1ccc(-c2cn3c(n2)sc2cc(C(=O)NCCCc4ccccc4)ccc23)cc1`, the “activity change, negative = cytotoxicity” value is inactive: 0.295%.

For `Cc1ccc(C2=Nc3ccccc3NC(c3ccncc3)=N2)cc1`, the “activity change, negative = cytotoxicity” value was inactive: -3.19%.

Regarding `CNS(=O)(=O)c1cn(CC(=O)Nc2ccc(C)cc2C)cc1S(=O)(=O)NC`, the “activity change, negative = cytotoxicity” value was inactive: 0.213%.

As to `CCc1ccccc1NC(=O)C1CCCN(S(=O)(=O)c2cccc3nsnc23)C1` (stereo unspecified), the “activity change, negative = cytotoxicity” value is inactive: 2.11%.

As to `COc1ccc(CCNC(=O)CCc2c(C)nc3c(c(C)nn3-c3ccc(C)cc3)c2C)c(OC)c1`, the “activity change, negative = cytotoxicity” value was inactive: 18.2%.

With `COc1cc(C2c3c(-c4ccccc4O)n[nH]c3C(=O)N2Cc2ccncc2)ccc1O` (stereo unspecified), the “activity change, negative = cytotoxicity” value is inactive: -19.6%.

`Cc1nc2ccc(S(=O)(=O)CCC(=O)Nc3ccc(F)cc3C)cc2s1`: the “activity change, negative = cytotoxicity” value is inactive: 16%.

As to `CC(C)c1ccc(NC(=O)CCCc2nc(-c3ccc(Cl)cc3)no2)cc1`, the “activity change, negative = cytotoxicity” value is inactive: -15.4%.

Take `COc1cc(Cl)c(NC(=O)C2CCN(S(=O)(=O)c3c(C)noc3/C=C/c3ccccc3F)CC2)c(OC)c1`: the “activity change, negative = cytotoxicity” value is inactive: 3.7%.

For the compound `Cc1ccccc1NC(=O)c1ccccc1NC(=O)c1ccccc1Cl`, the “activity change, negative = cytotoxicity” value is inactive: 22%.

Turning to `Cc1cc(OCCCSc2nc(-c3ccc(C(C)(C)C)cc3)nc3cc(=O)[nH]n23)ccc1Cl`, the “activity change, negative = cytotoxicity” value was inactive: 1.81%.

With `CCc1ccc(NC(=O)CSc2ccc3nnc(CCNS(=O)(=O)c4ccc(OC)cc4)n3n2)cc1`, the “activity change, negative = cytotoxicity” value was inactive: -0.395%.

For `CCc1ccc(NC(=O)C2CCN(c3cc(C)nc4c(-c5ccc(Cl)cc5)c(C)nn34)CC2)cc1`, the “activity change, negative = cytotoxicity” value was inactive: 3.84%.

As for `O=C(Cn1cnc2c(nc3n2CCCCC3)c1=O)Nc1ccc(F)cc1`, the “activity change, negative = cytotoxicity” value was inactive: 9.24%.

For `CCCN(CCC)CCCNC(=O)Cn1cnc2onc(-c3ccc(F)cc3)c2c1=O`, the “activity change, negative = cytotoxicity” value is inactive: -5.1%.

Consider `O=C(CCCn1c(=O)[nH]c2ccccc2c1=O)NCc1ccccc1Cl`, for which the “activity change, negative = cytotoxicity” value is inactive: -7.81%.

For the compound `COc1cccc(NC(=O)CSc2nc3ccc(NC(=O)c4ccco4)cc3s2)c1`, the “activity change, negative = cytotoxicity” value is inactive: 3.27%.

For the compound `CCc1nn(CC(=O)NCCCOC)c(=O)c2cc3occc3n12`, the “activity change, negative = cytotoxicity” value was inactive: 4.38%.

With `COc1ccccc1NC(=O)Cn1c(=O)n(Cc2ccco2)c(=O)c2oc3ccccc3c21`, the “activity change, negative = cytotoxicity” value is inactive: -0.3%.

For the compound `Cc1ccc2c(=O)cc(C(=O)Nc3c(C)n(C)n(-c4ccccc4)c3=O)oc2c1C`, the “activity change, negative = cytotoxicity” value was inactive: -20.6%.

As to `CCC(=O)NC1CC(=O)N(c2ccc3c(c2)OCCO3)C1` (stereo unspecified), the “activity change, negative = cytotoxicity” value is inactive: 1.68%.

Regarding `COC(=O)C(C)Sc1nnc2cc(C)c3cc(C)cc(C)c3n12` (stereo unspecified), the “activity change, negative = cytotoxicity” value was inactive: -0.73%.

In the case of `CN(C(=O)c1nc(-c2cccc(F)c2)n2c1CCCCC2)c1ccccc1F`, the “activity change, negative = cytotoxicity” value is inactive: -0.238%.

As to `Cc1cc(C)c2c(-n3cccc3)c(C(=O)NCCc3ccc(Cl)cc3)sc2n1`, the “activity change, negative = cytotoxicity” value was inactive: 2.76%.

For `CCCCNC(=O)C1CCN(C(=O)N2CC(C)Oc3ccc(Cl)cc32)CC1` (stereo unspecified), the “activity change, negative = cytotoxicity” value is inactive: 0.733%.

For `CCOc1ccccc1-n1c(C)nc2cc(C(=O)O)ccc21`, the “activity change, negative = cytotoxicity” value is inactive: -20.2%.

In the case of `Cc1cc(=O)[nH]c2nnc(SCc3ccc(Cl)c(Cl)c3)n12`, the “activity change, negative = cytotoxicity” value was inactive: -7.76%.

`COc1cccc(NC(=O)CSc2cc(=O)n(C)c3ccc(Cl)cc23)c1`: the “activity change, negative = cytotoxicity” value is inactive: 20.4%.

`CCCCN(C)CCCNC(=O)CN1C(=O)COc2ccc(S(=O)(=O)N3CCC(C)CC3)cc21`: the “activity change, negative = cytotoxicity” value was inactive: 24.9%.

With `CCOC(=O)N1CCc2c(sc(NCc3sccc3C)c2C(=O)Nc2cc(OC)ccc2OC)C1`, the “activity change, negative = cytotoxicity” value was inactive: 0.541%.

In the case of `N#C/C(=C\c1ccc(F)cc1)C(=O)NCC1CCCO1` (stereo unspecified), the “activity change, negative = cytotoxicity” value is inactive: 0.509%.

With `Cn1cnc(S(=O)(=O)N2CCCC(C(=O)NCc3ccccc3Cl)C2)c1` (stereo unspecified), the “activity change, negative = cytotoxicity” value is inactive: 18.2%.

On to `Cc1ccc(CCNC(=O)C(CC(C)C)NS(=O)(=O)c2ccc3c(c2)oc(=O)n3C)cc1` (stereo unspecified), for which the “activity change, negative = cytotoxicity” value was inactive: -3.08%.

Consider `Cc1cccc(C(=O)N2CCc3cc(CNC(=O)c4ccnn4C)ccc32)c1`, for which the “activity change, negative = cytotoxicity” value was inactive: -8.71%.

On to `CCOc1ccccc1NC(=O)Cc1coc2c(C)c(C)ccc12`, for which the “activity change, negative = cytotoxicity” value was inactive: -10%.

As to `CCOc1ccccc1NC(=O)CN1C(=O)COc2ccc(S(=O)(=O)N3CCCCCC3)cc21`, the “activity change, negative = cytotoxicity” value was inactive: 4.39%.

As to `COC(=O)c1ccc(NC(=O)CCc2c(C)nc3c(c(C)nn3-c3ccc(C)cc3)c2C)cc1`, the “activity change, negative = cytotoxicity” value was inactive: -0.189%.

In the case of `COc1ccc(CCNc2nc(-c3ccc(C)cc3)cc(C(F)F)n2)cc1OC`, the “activity change, negative = cytotoxicity” value is inactive: 14.9%.

`Cc1cccc(NC(=O)c2oc3c(c2C)-c2[nH]ncc2CC3)c1C`: the “activity change, negative = cytotoxicity” value is inactive: 2.11%.

`CCOC(=O)C1CCN(c2c(C(=O)c3ccc(OCC)cc3)cnc3ccc(OC)cc23)CC1`: the “activity change, negative = cytotoxicity” value is inactive: -23.3%.

On to `Oc1c(C(c2ccccc2F)N2CCOCC2)sc2nc(-c3ccco3)nn12` (stereo unspecified), for which the “activity change, negative = cytotoxicity” value is inactive: 16.3%.

As for `CCOC(=O)c1cccc(NC(=O)CC(c2cc(OC)c(OC)c(OC)c2)N2Cc3ccccc3C2=O)c1` (stereo unspecified), the “activity change, negative = cytotoxicity” value is inactive: -0.739%.

As for `CCc1nn2c(-c3ccccc3OC)ccnc2c1-c1ccc(F)cc1`, the “activity change, negative = cytotoxicity” value is inactive: 9.94%.

As for `CCOc1ccc(NC(=O)CN2CCN(Cc3ccccc3)S2(=O)=O)cc1`, the “activity change, negative = cytotoxicity” value was inactive: 3.49%.

As for `Cc1nc2c(C(=O)NCc3ccccc3Cl)c[nH]n2c(=O)c1Cc1cccc(Cl)c1`, the “activity change, negative = cytotoxicity” value is inactive: -0.783%.

As for `CCN(c1ccccc1)S(=O)(=O)c1ccc2[nH]cc(C(=O)NC3CCCCC3)c(=O)c2c1`, the “activity change, negative = cytotoxicity” value is inactive: -23.5%.
